In the supplement of paper PMC3334620:
In all, about 33,000 sequences were measured (“E-score (-0.5 to 0.5)”: median about -0.04, highest 2% from about 0.36 on). The list shows a part of the results.

Target: T1, Hmlalpha2 (UniProt P0CY09)
T1 sequence: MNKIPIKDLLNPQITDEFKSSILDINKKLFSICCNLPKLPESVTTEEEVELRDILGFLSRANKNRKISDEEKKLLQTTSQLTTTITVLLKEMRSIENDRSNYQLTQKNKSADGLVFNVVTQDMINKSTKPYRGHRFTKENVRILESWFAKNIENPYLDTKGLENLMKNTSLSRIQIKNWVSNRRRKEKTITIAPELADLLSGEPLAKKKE
Assay: PBM E-score (8-mer binding enrichment) (E-score (-0.5 to 0.5)); higher = stronger / more preferred TF binding; most listed sequences are background and not binding sites
Settings: protein concentration: 200 nM; construct: GST-full length
Outline: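 PURExpress in vitro transcription/translation supplied GST-tagged yeast transcription factors, either full-length or DNA-binding domain. Applied at about 100-200 nM to universal all-10-mer Agilent arrays double-stranded by primer extension, the bound protein was detected with fluorescent anti-GST. E-scores, modified Wilcoxon-Mann-Whitney statistics, were given by the Universal PBM Analysis Suite to ungapped eight-base words pooled with their reverse complements after masliner normalisation.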

Sequence	PBM E-score
CGTGCTCC	-0.164
GCTCCATA	-0.219
GGGAGTCA	-0.356
ATTATCGG	-0.121
ACCCCGGG	-0.216
ACTGTACG	0.017
CAAATGGA	0.0223
AGCCTATC	-0.273
CAAGCCAG	-0.0099
CGAGCCAG	0.0182
CCGTACAA	0.087
AATCCACC	-0.103
ACACTGGT	0.0301
ATAACGTG	0.281
ACAGTTTG	-0.00642
AAGCTAAA	0.0304
CAGTTGCG	-0.0715
AGCGGGCA	-0.36
CGGTCACC	-0.13
ATTTTGAG	-0.0297
TAAGTAAA	0.269
AGGAAATG	0.0448
GCGCCCCA	-0.236
AACAGCTC	-0.137
AACCGCCT	-0.0917

Sequence	PBM E-score
AGCAGGTG	-0.00979
ACGATTAT	-0.115
ATGTGCAA	0.13
CACTAGCC	-0.0344
ATATGAAG	-0.0366
CACAAAAA	0.165
ATGTCGCC	0.0149
AAAGTTAG	0.166
GCTGGTTA	0.0943
CATACCAG	-0.139
ATCTGCAC	-0.0741
GCTGGATA	0.0277
CATGTAGA	0.472
AGACGATG	-0.0245
GACTTTCC	-0.121
CGTGACAG	0.0356
CACCACAC	0.0128
ATCCGACA	0.0939
AGCGCGGG	0.0254
CAACATTG	0.312
CCGAAGCA	-0.00945
AACCGTCC	-0.35
ACCAGCCC	-0.1
ATTAAGAG	-0.0103
GATGCCAC	-0.3

Sequence	PBM E-score
GGTGTATA	0.0823
ACCTTAAC	0.0374
AGTTTCGC	-0.15
GATGCCTA	0.0155
GCGGTGCC	-0.169
CACTAGTA	0.0732
GACTTACA	0.274
ACCTATAA	-0.029
AACAGATA	0.11
CTGCTGTC	-0.0801
ATCGAGTC	-0.033
TAAATCGA	0.175
ACCAGGCC	0.0909
GAGGAAAC	-0.0879
CAGTGGGG	-0.257
CCCGCTAA	-0.328
CATACATC	0.253
CAAAGCCA	-0.00746
GGGTACCC	-0.283
CCCAGCAC	-0.275
AATACTGG	-0.0805
GCGTCCTA	0.00602
CCCGGCCG	-0.261
CGTAAAGA	0.333
CAGACCCA	-0.102

Sequence	PBM E-score
CTGCTAGA	-0.143
GATTGCGA	-0.0143
CATATCAG	-0.0492
AGATTCTG	-0.112
CGGTTGAC	0.105
ACGCCAGA	-0.0917
CAAGCTAA	-0.0852
AGACTCCG	-0.0955
ATACGGGA	-0.0536
CGATTGAC	0.233
CCTATATA	0.00021
ACCCGACA	-0.0309
CAACTTCG	0.00496
CTTCCTGA	-0.0268
AATATTTG	0.15
AGCGTCCA	-0.0582
CGCGGTGC	-0.218
AAACAGTG	0.0284
ATCCACAT	0.158
AGGGGAGG	-0.299
ACGGCTTA	-0.0718
CGCACACC	-0.00368
AGACACGA	0.325
AACTAGAG	0.00649
TGACTGAA	-0.0503

Sequence	PBM E-score
ATCTACCG	-0.0724
ACAATCTA	0.171
GGGATGCA	-0.349
CATCTGGG	-0.15
GCTTAGCC	-0.281
CCGAGTGA	-0.215
GACTCGCC	-0.217
GATACTCA	-0.0664
ACTAGAGG	-0.0709
GATCTAAA	-0.0243
GGGAGCGA	-0.29
ATCACTCA	-0.077
TTAGGCAA	0.00947
CCATACGG	-0.085
ACAACACG	0.417
AGATTTAT	0.0596
GGGGACGA	-0.158
AACATAAA	0.28
AATTACAA	0.436
CCGGCTAA	-0.144
CTGGGACA	-0.185
AACGCACT	0.206
TAGCGCAA	0.083
GTAGCGCA	-0.17
GCGTATTA	0.349

Sequence	PBM E-score
GGCAAGCC	-0.22
AAACTTCT	0.171
AAGGACAA	0.102
AATTTGTG	0.0268
CGGCTTAG	-0.2
ACTCCCTA	0.162
CCTAACAC	0.342
ACGGTCTC	-0.117
AGTACGCC	-0.169
ATTAGTCG	-0.00776
GGGTAGTA	-0.0737
CACATCAG	-0.0878
CCATCGCG	0.0465
GCATTTAA	0.202
GAAGTCCA	-0.173
AGAAGGCA	-0.157
CCGAGCAC	-0.188
AGCGCCGC	-0.147
GTCGTCGA	-0.0273
AATGCCGA	-0.0788
CACCCGAA	-0.106
ACGAAATG	-0.0535
GGCGAAAA	-0.00476
AGCAGAGA	-0.187
ACGCTGTA	0.199

Sequence	PBM E-score
ACGTAGGA	0.141
CTTTAGAA	0.0717
CTGCCGCA	-0.358
CTATAATC	-0.0966
GCCCAGGA	-0.11
GCGGCAGC	-0.34
TAACTATA	0.159
GACTAGCA	-0.0999
AATCGAAT	0.00768
GGAGAGAC	-0.305
AGCTTGTA	0.379
ATAAAGAT	0.18
ACTTAGAC	0.127
GCCCTACA	-0.0533
ACTGTAAG	0.0573
ACTTAAAT	-0.0553
TATAGTGA	-0.118
CGCCCACC	-0.125
GTGTTAAC	0.462
TCGTAGCA	0.161
ACTTAGTC	-0.182
GCATCTAA	0.0404
